Hit rate of the full screen: of about 48,000 compounds, about 550 (1.1%) were called active. Roughly 4% stayed inconclusive and do not appear here. Cut-off read from the data, not from the text of the source: active = potency below about 15 µM; inconclusive = mostly about 16 µM to 33 µM; inactive = weaker than that. The list shows a part of the results.
Potency is the fitted concentration of half-maximal effect.

UniProt P04062, sequence (P04062 whole entry, looked up): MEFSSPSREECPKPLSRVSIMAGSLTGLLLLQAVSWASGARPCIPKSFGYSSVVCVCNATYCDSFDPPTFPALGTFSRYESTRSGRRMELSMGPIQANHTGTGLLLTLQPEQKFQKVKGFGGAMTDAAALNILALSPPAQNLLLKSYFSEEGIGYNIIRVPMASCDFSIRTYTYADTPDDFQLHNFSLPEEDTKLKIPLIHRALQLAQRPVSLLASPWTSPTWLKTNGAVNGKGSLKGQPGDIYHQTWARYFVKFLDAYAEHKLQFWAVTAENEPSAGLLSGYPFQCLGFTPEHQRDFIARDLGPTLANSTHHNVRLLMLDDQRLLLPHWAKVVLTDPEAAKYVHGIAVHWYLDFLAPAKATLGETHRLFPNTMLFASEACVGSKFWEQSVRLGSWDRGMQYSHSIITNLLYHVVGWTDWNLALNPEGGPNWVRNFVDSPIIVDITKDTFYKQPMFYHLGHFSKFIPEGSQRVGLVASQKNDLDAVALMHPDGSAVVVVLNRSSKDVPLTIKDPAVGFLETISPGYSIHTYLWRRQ

The target in the assay is Lysosomal acid glucosylceramidase (Homo sapiens) (UniProt P04062). The assay is described as follows: Glucocerebrosidase.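 Note: the screen sought inhibitors.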 Particulars: purified enzyme, resorufin glucoside fluorescence (screen aimed at inhibitors), 20 min. The essentials:
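Normal human glucocerebrosidase (0.2 nM final) was assayed with resorufin β-D-glucopyranoside (30 uM final) in 50mM citric acid/KH2PO4, 10mM sodium taurocholate, 0.01% tween-20, pH 5.9. Compounds were titrated; fluorescence (Ex 548, Em 600) read after 20 min at RT.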
For `CCOc1ccccc1C(=O)Nc1ccccc1C(N)=O`, the Potency is inactive: > 76.9 µM.

Regarding `CCOc1ccc(OCC)c(NC(=O)Cn2cccc2)c1`, the Potency is inactive: > 76.9 µM.

For `COc1cccc(NC(=O)c2cccs2)c1`, the Potency is inactive: > 76.9 µM.

Turning to `NC(=O)C(F)(F)C12OC3C4C5CC(C6C5C3C61)C42` (configuration not stated), the Potency is inactive: > 76.9 µM.

On to `CCOC(=O)Nc1cccc(OCC(=O)Nc2ccc(OC)cc2OC)c1`, for which the Potency was inactive: > 76.9 µM.

Regarding `Cc1cccc(C(OC(=O)c2ccco2)C(=O)NCc2ccccc2)n1` (configuration not stated), the Potency is inactive: > 76.9 µM.

On to `CC(C)C(C)(C#N)NC(=O)CSc1nc2scc(-c3ccco3)c2c(=O)n1-c1ccccc1` (configuration not stated), for which the Potency is active: 15.1 µM.

As for `C=C1C(C(=O)N2CCOCC2)C1C(=O)N1CCOCC1` (configuration not stated), the Potency is inactive: > 76.9 µM.

`O=C(O)COCc1nc2ccccc2[nH]1`: the Potency was inactive: > 76.9 µM.

On to `O=C1CCC(C(=O)NCCCn2ccnc2)N1` (configuration not stated), for which the Potency is inactive: > 76.9 µM.

Consider `O=c1c(-c2ccccc2)[n+]([O-])c2ccccc2n1O`, for which the Potency is inactive: > 76.9 µM.

Consider `Cc1cc(N2CCCC2=O)cc(C)c1S(N)(=O)=O`, for which the Potency is inactive: > 76.9 µM.

With `CCOC(=O)N1CCN(C(=O)C2CC(=O)N(Cc3ccc(OC)cc3)C2)CC1` (configuration not stated), the Potency was inactive: > 76.9 µM.

Turning to `COC(=O)c1cc(Cl)c(NC(=O)c2ccco2)cc1OC`, the Potency was inactive: > 76.9 µM.

Turning to `c1coc(CNCC2OCCc3ccccc32)c1` (configuration not stated), the Potency was inactive: > 76.9 µM.

Regarding `CCn1c(COc2cccc(C)c2)nnc1SCC(=O)N1CCCC1`, the Potency is inactive: > 76.9 µM.

In the case of `O=C1CCCN1CC(CN1CCOCC1)Sc1nc2ccccc2c(=O)n1-c1ccccc1` (configuration not stated), the Potency is inactive: > 76.9 µM.

Take `Cc1cccc(N(C)S(=O)(=O)c2ccc3[nH]c(=O)c(=O)[nH]c3c2)c1`: the Potency was active: 10.9 µM.

Turning to `COC(=O)Cn1c(=N)n(CCN2CCCCC2)c2ccccc21`, the Potency was inactive: > 76.9 µM.

For `CCN(CC)c1ccc(NC(=O)c2ccc(Br)o2)c(C)c1`, the Potency is inactive: > 76.9 µM.

Take `O=C(Nc1ccccc1OC(F)F)c1ccc(F)cc1`: the Potency is inactive: > 76.9 µM.

`CCOC(=O)c1cccc(NC(=O)CSc2nnc(COc3ccccc3C)o2)c1`: the Potency was inactive: > 76.9 µM.

With `Cc1nonc1NC(=O)CSc1ccc(-c2ccccc2)nn1`, the Potency was inactive: > 76.9 µM.

In the case of `Cc1ncsc1C(=O)NCc1ccc(N2CCCC2=O)cc1`, the Potency is inactive: > 76.9 µM.

Take `O=C(CN1CCN(c2ccccc2)CC1)N1CCN(c2ccccc2)CC1`: the Potency is inactive: > 76.9 µM.

With `COC(=O)c1c(C)oc2ccc(NS(=O)(=O)c3cc(OC)ccc3OC)cc12`, the Potency is inactive: > 76.9 µM.

As for `CC(C)(C)NC(=O)C(c1ccco1)N(C(=O)Cn1nnc(-c2ccc(F)cc2)n1)c1ccccc1F` (configuration not stated), the Potency was inactive: > 76.9 µM.

For `Cc1nc(NCCN2CCOCC2)c2oc3ccccc3c2n1`, the Potency is inactive: > 76.9 µM.

`Cc1ccc(C)c2nc(N3CCCC3)c(C#N)cc12`: the Potency was inactive: > 76.9 µM.

Consider `CC(C)(C)NC(=O)NC(=O)COC(=O)C1CC(=O)N(Cc2ccccc2)C1` (configuration not stated), for which the Potency was inactive: > 76.9 µM.

With `COc1ccc(-c2nnc(SC(C)C(=O)Nc3nccs3)n2-c2ccccc2)cc1OC` (configuration not stated), the Potency is inactive: > 76.9 µM.

Regarding `Cc1cc(NC(=O)c2c(F)c(F)c(F)c(F)c2F)no1`, the Potency was inactive: > 76.9 µM.

For the compound `NC(=O)c1cc(S(=O)(=O)NC2CCCCC2)co1`, the Potency is inactive: > 76.9 µM.

As for `CCOC(=O)c1c(C)c(C(=O)NC(C)COC)c(C)n1CC` (configuration not stated), the Potency was inactive: > 76.9 µM.

As for `CCCCNc1nc2ccccc2nc1NS(=O)(=O)c1cccs1`, the Potency is inactive: > 76.9 µM.

As to `CCOC(=O)c1c(C)[nH]c(C(=O)CN2CCOCC2)c1C`, the Potency entry was “inactive”.

For the compound `CCn1c(SCC(=O)Nc2oc(-c3ccccc3)c(-c3ccccc3)c2C#N)nnc1-c1ccco1`, the Potency was inactive: > 76.9 µM.

Consider `CN1C(=O)c2ccc(N3CCCC3)cc2C1=O`, for which the Potency was inactive: > 76.9 µM.

For `O=C(O)CCc1ccc(-c2ccccc2)n1NC(=O)c1ccco1`, the Potency is inactive: > 76.9 µM.

With `Cc1nnsc1-c1nc2ccccc2[nH]1`, the Potency was inactive: > 76.9 µM.

As for `Cc1nc2nc(C)c(CCC(=O)Nc3ccc4c(c3)OCO4)c(C)n2n1`, the Potency was inactive: > 76.9 µM.

Turning to `COc1cc(OC)c(C#N)c(S(=O)Cc2ccccc2)c1` (configuration not stated), the Potency is inactive: > 76.9 µM.

As to `CN(C)c1cccc(C(=O)OCC(=O)NCc2ccco2)c1`, the Potency was inactive: > 76.9 µM.

Consider `C=CCSc1[nH]c(=O)cc(C)c1C(N)=O`, for which the Potency is inactive: > 76.9 µM.

In the case of `C=CCn1c(SCc2cc(=O)n3ccsc3n2)nc2scc(C3CC3)c2c1=O`, the Potency is inactive: > 76.9 µM.

For the compound `Nc1nc(-c2ccccc2Br)cs1`, the Potency result was “inactive”.

Turning to `O=c1c2[nH]c3ccc(Cl)cc3c2ncn1Cc1ccccn1`, the Potency was inactive: > 76.9 µM.

As to `c1ccc(Cc2nn3c(Cn4cnc5ccccc54)nnc3s2)cc1`, the Potency was inactive: > 76.9 µM.

Take `COc1ccc(-n2c(C)cc(C(=O)CSc3nnc(-c4ccoc4C)n3C)c2C)cc1`: the Potency was inactive: > 76.9 µM.

Take `O=C(CN1CCN(C2CCCCC2)CC1)NCCC1=CCCCC1`: the Potency was inactive: > 76.9 µM.

Consider `CCOc1ccc2nc(NC3=NCN(Cc4ccco4)CN3)nc(C)c2c1`, for which the Potency was inactive: > 76.9 µM.

With `Cc1ccc(-c2noc(-c3ccccc3C(=O)N3CCN(C)CC3)n2)cc1`, the Potency result is “inactive”.

As to `CN(C(=O)c1ccno1)c1nnc(-c2cnccn2)s1`, the Potency was inactive: > 76.9 µM.

For the compound `CC(NC(=O)OC1CCCCC1)N1C(=O)C2C3C=CC(C3)C2C1=O` (configuration not stated), the Potency is inactive: > 76.9 µM.

On to `CCOC(=O)c1c(C)c(C(=O)N(C)C2CCCCC2)c(C)n1C`, for which the Potency is inactive: > 76.9 µM.

Consider `OC1(c2ccccc2)C/C(=N\n2cnnc2)C=C1c1ccccc1` (configuration not stated), for which the Potency was inactive: > 76.9 µM.

Regarding `CCC(C)(C)n1nnnc1C(c1cccnc1)N1CCCc2ccccc21` (configuration not stated), the Potency was inactive: > 76.9 µM.

Regarding `COc1cccc(C2C(C(=O)Nc3cccnc3)=C(C)Nc3nnnn32)c1OC` (configuration not stated), the Potency is inactive: > 76.9 µM.

On to `c1cncc(-c2nc3ccccc3o2)c1`, for which the Potency was inactive: > 76.9 µM.

Consider `COc1ccc2c(c1OC)C(=O)N(c1ccc3c(c1)CCC3)C2=O`, for which the Potency was inactive: > 76.9 µM.

Consider `Cc1cc(-n2c(C)cc(C(=O)CN3C(=O)NC4(CCCCC4)C3=O)c2C)no1`, for which the Potency is inactive: > 76.9 µM.

As to `CC(C)(O)/C=C1/Oc2ccccc2C1N1CCCCC1` (configuration not stated), the Potency was inactive: > 76.9 µM.

With `O=C(CSc1nnc(-c2ccc(OC(F)F)cc2)o1)N1CCOCC1`, the Potency was inactive: > 76.9 µM.

As for `Fc1ccc(CSc2nnc(-c3cnccn3)n2Cc2ccco2)cc1`, the Potency was inactive: > 76.9 µM.

On to `CCCC1(C(=O)OC)NC(c2ccco2)C2C(=O)N(c3ccc(C)cc3)C(=O)C21` (configuration not stated), for which the Potency is inactive: > 76.9 µM.

For the compound `O=S(=O)(c1cccs1)N1CCN(c2ncccn2)CC1`, the Potency was inactive: > 76.9 µM.

Consider `Clc1ccccc1CN1CCc2sccc2C1`, for which the Potency was inactive: > 76.9 µM.

For the compound `COc1cccc(-c2ccc(=O)n(CC(=O)Nc3cc4c(cc3NC(C)=O)OCCO4)n2)c1`, the Potency is inactive: > 76.9 µM.

In the case of `CCOC(=O)C1=C(C)Nc2nc(SCC)[nH]c(=O)c2C1c1ccncc1` (configuration not stated), the Potency is inactive: > 76.9 µM.

`COC(=O)/C=c1/sc2n(c1=O)CCN=2`: the Potency is inactive: > 76.9 µM.

In the case of `O=C(NCn1ccc(=O)[nH]c1=S)c1ccccc1`, the Potency was inactive: > 76.9 µM.

`CCOc1ccc2[nH]c(=O)c(=O)[nH]c2c1`: the Potency entry is “inactive”.

Consider `O=C(NCc1ccc2c(c1)OCO2)C1CCCN(S(=O)(=O)c2cccc3nonc23)C1` (configuration not stated), for which the Potency is inactive: > 76.9 µM.

`O=C1c2oc3ccccc3c(=O)c2C(c2cccc(F)c2)N1CCCO` (configuration not stated): the Potency was inactive: > 76.9 µM.

In the case of `COCCNC(=O)C1CCC(Cn2c(=S)[nH]c3ccccc3c2=O)CC1` (configuration not stated), the Potency was inactive: > 76.9 µM.

As to `CCN(CC)c1ccc2cc(C(=O)Nc3ccc(-n4cnnn4)c(OC)c3)c(=O)oc2c1`, the Potency was inactive: > 76.9 µM.

Consider `CCOc1ccc2c(C)c(C(=O)O)oc2c1OCC`, for which the Potency is inactive: > 76.9 µM.

`O=C(NC1(C(F)(F)F)NC(=O)N(Cc2cccnc2)C1=O)c1cccs1` (configuration not stated): the Potency was inactive: > 76.9 µM.

Consider `COc1ccc(NC(=O)CCS(=O)(=O)c2ccc(OC)cc2)cc1`, for which the Potency was inactive: > 76.9 µM.

Regarding `CC(=O)NCc1nc2ccccc2n1Cc1ccccc1F`, the Potency was inactive: > 76.9 µM.

Take `CCCOC(=O)c1ccc(Oc2cn[nH]c2-c2ccc(OCC)cc2O)cc1`: the Potency is inactive: > 76.9 µM.

As to `Cc1cccc(-n2c(CNC(=O)c3ccc(S(=O)(=O)N4CCCC4)cc3)n[nH]c2=S)c1`, the Potency was inactive: > 76.9 µM.

Regarding `O=C(c1ccco1)N1CCN(C(=O)c2cnn3cccnc23)CC1`, the Potency was inactive: > 76.9 µM.

Regarding `COc1ccc(-c2nn(C)c(=O)c3ccccc23)cc1CNS(C)(=O)=O`, the Potency is inactive: > 76.9 µM.

For `CS(=O)(=O)N(CC(=O)NCc1ccc2c(c1)OCO2)c1ccc(Cl)cc1`, the Potency was inactive: > 76.9 µM.

In the case of `CC(NCC1(N2CCOCC2)CCCCC1)C(=O)N1CCc2ccccc21` (configuration not stated), the Potency is inactive: > 76.9 µM.

`CCN1CCN(P2(=O)C=C(c3ccccc3)OC(c3ccccc3)=C2)CC1`: the Potency was inactive: > 15.4 µM.

Turning to `CCC(C)(C)n1nnnc1C(c1cc(OC)c(OC)c(OC)c1)N1CCN(c2ccccc2)CC1` (configuration not stated), the Potency was inactive: > 76.9 µM.

For `CC(C(=O)NCC1CCCO1)N(C(=O)c1snc(C(N)=O)c1N)c1cccc(F)c1` (configuration not stated), the Potency is inactive: > 76.9 µM.

For `COc1ccc(OCc2nnc(SCC(N)=O)n2-c2ccccc2OC)cc1`, the Potency was inactive: > 76.9 µM.

Consider `COc1cc(C(=O)NCc2nnc(SCC(=O)N3CCCCC3)o2)cc(OC)c1OC`, for which the Potency was inactive: > 76.9 µM.

`COc1ccc(NC(=O)C2=C(C)Nc3ncnn3C2c2ccccc2C(F)(F)F)c(OC)c1` (configuration not stated): the Potency is inactive: > 76.9 µM.

Values taken from PubChem BioAssay AID360 (National Center for Advancing Translational Sciences (NCATS), 2006).
